Measured values published in PubChem BioAssay (NCATS).
“And” between values parts separate entries of the source, which are not always exact repeats. Equal entries are not always repeated. The inconclusive results got no clear call from the source; some entries with a clear call stand among them for comparison. For part of these data: Potencies of inconclusive entries are doubtful fits and often do not repeat. The source made the active and inactive calls. Unless noted, calls come from the whole dose curve; as a rule, active = well fitted curve in the direction sought with a large enough effect; inconclusive = small, poorly fitted or top-dose-only effect, or another doubt; inactive = no such curve, though single readings can be large; an effect the other way counts as inactive or inconclusive.

Columns and labels:
[1] = biological target: Cytochrome P450 2C9 (Homo sapiens) (UniProt P11712); assay: Cytochrome P450 family 2 subfamily C member 9 (CYP2C9) small molecule antagonists: luciferase biochemical (cell-free) qHTS assay (AID 1645842; active = well fitted curve in the direction sought with a large enough effect in the repeat runs; inconclusive = weak or mixed curves; inactive = no such curve, though single readings can be large; an effect the other way counts as inactive or inconclusive; note: potency is the fitted concentration of half-maximal effect; nearly all actives have a fitted effect of over 55% in size)
Outline: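 P450-Glo CYP2C9 system: proluciferin substrate with enzyme in mix containing 0.4% BSA, 10 min at room temperature, then NADPH regeneration solution added and incubated 1 h at 37C. Detection reagent stopped reaction; luminescence read after 20 min as RLU.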

[2] = Primary redox qHTS assay for identification of artifact compounds. (AID 1845223)
Outline: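 Redox-cycling detection via DTT (250 uM final) oxidation coupled to Amplex Red (25 uM)/HRP (250 mU/mL) in HBSS. 15 min preincubation plus 30 min after DTT, room temperature. Ex/Em 525/598 nm; 4-parameter Hill fit against DMSO and 10 uM DA3003.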

[3] = qHTS of pediatric cancer cell lines to identify multiple opportunities for drug repurposing: Primary screen for NB1643 cells (AID 1347099); note: nearly all actives have a fitted effect of over 50% in size; note: potency is the fitted concentration of half-maximal effect
Outline: (§1)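 ATP-based luminescence (CellTiter-Glo) quantifies viability after a 48-hour exposure. Compounds are dosed across 8 or 11 final concentrations; DMSO and 2.3 µM bortezomib serve as controls.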

[4] = Primary qHTS for small molecule stabilizers of the endoplasmic reticulum resident proteome: Secreted ER Calcium Modulated Protein (SERCaMP) assay (AID 1508630); conditions: SH-SY5Y GLuc-SERCaMP (Gaussia luciferase released on ER calcium loss) secretion, thapsigargin, luminescence; series mostly up to 38.4 µM; note: potency is the fitted concentration of half-maximal effect
Outline: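 The SH-SY5Y reporter protocol was run at 3 concentrations up to 38.3 uM (primary) or 11 concentrations (follow-up): 16 h compound, 100 nM thapsigargin for 4 h, then extracellular luciferase luminescence.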

[5] = A High-Content qHTS Against Drug Library for the Identification of Small Molecules that Inhibit DYT1 Early Onset Primary Dystonia-Associated Cell Pathology (AID 1645839; calls by dose curve; note: potency is the fitted concentration of half-maximal effect)
Outline: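 High-content imaging quantified EGFP-TorsinA mislocalization in HEK293-derived cells inducibly expressing DYT1 mutant torsinA, after 48 h exposure to compound given together with tetracycline induction. Cell count served as a toxicity channel alongside %pathology.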

[6] = system: UISO; assay: qHTS assay to identify novel small-molecules to repurpose for Merkel cell carcinoma treatment (AID 1296009); conditions: MCC and control cell lines, CellTiter-Glo viability, 72 h; activity change, negative = cytotoxicity: at 46 µM (top of the series); note: nearly all actives have a fitted effect of over 60% in size; note: potency is the fitted concentration of half-maximal effect
Outline: (§2)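 Cell viability measured by CellTiter-Glo following 72 hr compound treatment at 37 degree celsius, with NPC and MIPE libraries tested in 8- and 11-point concentration series.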

[7] = system: WaGa; assay: as above; conditions: MCC and control cell lines, CellTiter-Glo viability, 72 h; series mostly up to 46 µM
Outline: as §2

[8] = qHTS of pediatric cancer cell lines to identify multiple opportunities for drug repurposing: Primary screen for OHS-50 cells (AID 1347103); note: nearly all actives have a fitted effect of over 40% in size; note: potency is the fitted concentration of half-maximal effect
Outline: (§3)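 Cells (500-1,000/well) rested 5 h, then received compounds for 48 h; metabolically active cells were measured by CellTiter-Glo luminescence. Final concentrations spanned up to 46 µM (MIPE, 11-point) or 0.59 nM-46 µM (NPC, 8-point) in primary screens, 11-point in follow-ups.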

[9] = biological target: Cytochrome P450 2D6 (Homo sapiens) (UniProt P10635); assay: Cytochrome P450 family 2 subfamily D member 6 (CYP2D6) small molecule antagonists: luciferase biochemical (cell-free) qHTS assay (AID 1645840; active = well fitted curve in the direction sought with a large enough effect in the repeat runs; inconclusive = weak or mixed curves; inactive = no such curve, though single readings can be large; an effect the other way counts as inactive or inconclusive; note: nearly all actives have a fitted effect of over 55% in size)
Outline: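 P450-Glo CYP2D6 system: proluciferin substrate converted by enzyme to luciferin, read by luminescence proportional to activity. Enzyme-substrate mix with compound 10 min at room temperature, then NADPH regeneration 1 h before detection reagent.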

[10] = qHTS of pediatric cancer cell lines to identify multiple opportunities for drug repurposing: Primary screen for SJ-GBM2 cells (AID 1347091); note: potency is the fitted concentration of half-maximal effect
Outline: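 Cell viability, CellTiter-Glo luminescence; 500-1,000 cells/well, 8- or 11-point titration, 48 h compound exposure at 37 degrees C, 5% CO2. Controls: DMSO neutral, bortezomib 2.3 µM final as positive.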

[11] = qHTS of pediatric cancer cell lines to identify multiple opportunities for drug repurposing: Primary screen for A673 cells (AID 1347092); conditions: A673 Ewing sarcoma viability, CellTiter-Glo ATP luminescence, 48 h; activity change, negative = cytotoxic: at 46 µM (top of the series); note: potency is the fitted concentration of half-maximal effect; nearly all actives have a fitted effect of over 45% in size
Outline: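 Cells are plated, rested 5 h, dosed by pintool, incubated 48 h, then lysed with CellTiter-Glo and read by luminescence. DMSO is the neutral control; bortezomib at 2.3 uM final is the positive control.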

[12] = qHTS of pediatric cancer cell lines to identify multiple opportunities for drug repurposing: Primary screen for SK-N-MC cells (AID 1347093); conditions: SK-N-MC viability, CellTiter-Glo luminescence, 48 h; activity change, negative = cytotoxic: at 46 µM (top of the series); note: potency is the fitted concentration of half-maximal effect
Outline: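 Metabolically active cells were quantified by ATP-dependent luminescence (CellTiter-Glo, 15 min at room temperature) following 48 h treatment. Cells had been plated at 500-1,000 per well and settled for 5 h beforehand.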

[13] = qHTS of pediatric cancer cell lines to identify multiple opportunities for drug repurposing: Primary screen for BT-37 cells (AID 1347094); note: potency is the fitted concentration of half-maximal effect
Outline: as §1

[14] = qHTS of pediatric cancer cell lines to identify multiple opportunities for drug repurposing: Primary screen for NB-EBc1 cells (AID 1347095); note: potency is the fitted concentration of half-maximal effect
Outline: as §1

[15] = qHTS of pediatric cancer cell lines to identify multiple opportunities for drug repurposing: Primary screen for BT-12 cells (AID 1347101); note: potency is the fitted concentration of half-maximal effect; nearly all actives have a fitted effect of over 25% in size
Outline: as §3

[16] = qHTS of pediatric cancer cell lines to identify multiple opportunities for drug repurposing: Primary screen for Rh18 cells (AID 1347102); note: nearly all actives have a fitted effect of over 65% in size; note: potency is the fitted concentration of half-maximal effect
Outline: as §3

[17] = system: MKL-1; assay: qHTS assay to identify novel small-molecules to repurpose for Merkel cell carcinoma treatment (AID 1296009); conditions: MCC and control cell lines, CellTiter-Glo viability, 72 h; activity change, negative = cytotoxicity: at 46 µM (top of the series); note: nearly all actives have a fitted effect of over 60% in size; note: potency is the fitted concentration of half-maximal effect
Outline: as §2

[18] = system: HeLa; assay: Primary qHTS to identify gynecologic anti-cancer compounds using libraries of approved drugs and bioactive compounds (AID 1345084); conditions: Gynecologic cancer cell panel viability, ATPlite luminescence, 48 h; series mostly up to 57.5 µM; note: nearly all actives have a fitted effect of over 55% in size; note: potency is the fitted concentration of half-maximal effect
Outline: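 Cytotoxicity screen measuring ATP content by luciferase luminescence. Each compound is applied at five concentrations for 48 h at 37 C with 5% CO2.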

[19] = system: Zika virus NS2B-NS3 protease (linked construct); assay: Primary screen NINDS Rhodamine qHTS for Zika virus inhibitors (AID 1347160); note: potency is the fitted concentration of half-maximal effect; nearly all actives have a fitted effect of over 55% in size
Outline: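 Each compound, titrated, sat 15 min with 25 nM linked protease before 1.5 microM Rhodamine110 substrate went in. Fluorescence gain over the next 15 min, in pH 8.0 Tris with Tween 20, gave Hill-fitted curves.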

[20] = qHTS of pediatric cancer cell lines to identify multiple opportunities for drug repurposing: Primary screen for Saos-2 cells (AID 1347097); conditions: Saos-2 viability, CellTiter-Glo ATP luminescence, 48 h; activity change, negative = cytotoxic: at 46 µM (top of the series); note: potency is the fitted concentration of half-maximal effect; nearly all actives have a fitted effect of over 40% in size
Outline: as §1

Measured: Potency
Tags give direction and shape of the fitted curve.

Sequence of UniProt P11712 (P11712 whole entry, looked up): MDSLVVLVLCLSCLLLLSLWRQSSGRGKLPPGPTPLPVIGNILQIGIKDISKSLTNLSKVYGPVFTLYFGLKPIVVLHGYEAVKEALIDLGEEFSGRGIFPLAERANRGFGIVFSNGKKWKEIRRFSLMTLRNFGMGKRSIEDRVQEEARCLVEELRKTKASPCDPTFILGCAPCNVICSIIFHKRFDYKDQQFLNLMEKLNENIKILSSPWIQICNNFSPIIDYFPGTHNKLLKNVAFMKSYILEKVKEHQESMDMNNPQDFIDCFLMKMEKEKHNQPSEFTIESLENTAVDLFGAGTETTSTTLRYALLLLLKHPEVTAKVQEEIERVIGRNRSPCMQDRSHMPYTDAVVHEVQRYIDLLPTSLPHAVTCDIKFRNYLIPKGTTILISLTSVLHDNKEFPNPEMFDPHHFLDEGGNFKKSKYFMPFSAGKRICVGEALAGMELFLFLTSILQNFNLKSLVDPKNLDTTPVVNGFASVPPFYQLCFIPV
Sequence of UniProt P10635 (P10635 whole entry, looked up): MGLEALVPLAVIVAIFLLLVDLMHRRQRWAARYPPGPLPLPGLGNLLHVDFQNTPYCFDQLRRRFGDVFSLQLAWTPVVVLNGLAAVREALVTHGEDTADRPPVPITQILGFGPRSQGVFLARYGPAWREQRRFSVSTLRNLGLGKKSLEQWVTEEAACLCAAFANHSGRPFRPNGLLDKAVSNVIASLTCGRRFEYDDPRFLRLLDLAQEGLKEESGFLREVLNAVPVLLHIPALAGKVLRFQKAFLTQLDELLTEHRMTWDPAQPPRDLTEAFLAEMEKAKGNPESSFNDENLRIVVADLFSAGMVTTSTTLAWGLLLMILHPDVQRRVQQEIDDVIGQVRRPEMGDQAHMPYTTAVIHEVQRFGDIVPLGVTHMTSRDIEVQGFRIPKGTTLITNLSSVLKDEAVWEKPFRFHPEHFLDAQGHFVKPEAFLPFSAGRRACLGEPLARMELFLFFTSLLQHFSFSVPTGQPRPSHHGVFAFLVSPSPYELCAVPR

O=C(Nc1cc(C(F)(F)F)cc(C(F)(F)F)c1)c1cnc(Cl)nc1C(F)(F)F
inactive: [2]
inconclusive: [1] 23.9 µM [inhibitor, single point]

CC/C=C(\C(=O)N[C@@H]1C(=O)N2C(C(=O)OCOC(=O)C(C)(C)C)=C(COC(N)=O)CS[C@H]12)c1csc(N)n1
active: [1] 15.5 µM
inconclusive: [4] 31.6 µM [inhibitor, partial curve, poor fit] and 10 µM [inhibitor, partial curve, poor fit] | [5] 15.8 µM [inhibitor, single point] | [7] 26.6 µM [inhibitor, single point] and 16.8 µM [inhibitor, single point]
inactive: [3] | [6]

O=C(O)CCC(=O)OC[C@@H](NC(=O)C(Cl)Cl)[C@H](O)c1ccc([N+](=O)[O-])cc1
inconclusive: [1] 30.1 µM [inhibitor, single point]
inactive: [8] | [4] | [9]

CNCCCN1c2ccccc2CCc2ccccc21
inactive: [18]
inconclusive: [10] 29.9 µM [cytotoxic, single point] | [11] 33.5 µM [cytotoxic, single point] | [12] 16.8 µM [cytotoxic, partial curve] | [13] 38.9 µM [cytotoxic, single point] | [14] 11.9 µM [cytotoxic, partial curve] | [15] 15.5 µM [cytotoxic, partial curve] | [16] 21.1 µM [cytotoxic, single point] | [5] 25.1 µM [inhibitor, single point] | [17] 26.6 µM [inhibitor, single point] | [6] 26.6 µM [inhibitor, partial curve, poor fit] | [7] 15 µM [inhibitor, partial curve]

CC(C)(O)c1ccccc1CC[C@@H](SCC1(CC(=O)O)CC1)c1cccc(/C=C/c2ccc3ccc(Cl)cc3n2)c1
inconclusive: [19] 3.98 µM [inhibitor, partial curve, poor fit] | [4] 31.6 µM [inhibitor, partial curve, poor fit] | [18] 31.6 µM [cytotoxic, single point]
inactive: [9]

CC(CC1c2ccccc2CCc2ccccc21)CN(C)C (stereo unspecified)
inactive: [14] | [16] | [6]
inconclusive: [10] 11.9 µM [cytotoxic, partial curve] | [12] 7.5 µM [cytotoxic, partial curve, poor fit] | [13] 21.9 µM [cytotoxic, partial curve, poor fit] | [20] 21.1 µM [cytotoxic, partial curve] | [15] 17.4 µM [cytotoxic, single point] | [8] 19.5 µM [cytotoxic, partial curve] | [4] 12.6 µM [inhibitor, partial curve, poor fit] | [5] 31.6 µM [inhibitor, single point]

Cc1cc2occ(CN(C)CCN(C)Cc3cn(-c4cccc(C(F)(F)F)c4)c4ccccc34)c(=O)c2cc1C
inconclusive: [18] 31.6 µM [cytotoxic, single point]

COc1c(C)c2c(c(O)c1C/C=C(\C)CCC(=O)OCCN1CCOCC1)C(=O)OC2
inactive: [4]
inconclusive: [10] 1.5 µM [cytotoxic, full curve] | [12] 0.266 µM [cytotoxic, full curve, poor fit] | [20] 8.41 µM [cytotoxic, partial curve, poor fit] | [3] 0.266 µM [cytotoxic, full curve, poor fit] | [15] 0.389 µM [cytotoxic, full curve, poor fit] | [16] 4.22 µM [cytotoxic, partial curve, poor fit] | [8] 0.347 µM [cytotoxic, full curve] | [1] 11 µM [inhibitor, partial curve, poor fit] | [6] 1.19 µM [inhibitor, full curve] | [18] 25.1 µM [cytotoxic, partial curve, poor fit]
